# Measured values reported in publication PMC9911399, “Two distinct binding modes provide the RNA-binding protein RbFox with extraordinary sequence specificity”.
# Numbering of substitutions follows the chain as printed; changes in the protein carry UniProt numbers. The list shows a part of the results.
# T1: RBFOX1 RRM RbFoxmut (Fox-RRM*) (Homo sapiens, UniProt Q9NWB1 109-208, R118D;E147R;N151S;E152T)
# T1 sequence: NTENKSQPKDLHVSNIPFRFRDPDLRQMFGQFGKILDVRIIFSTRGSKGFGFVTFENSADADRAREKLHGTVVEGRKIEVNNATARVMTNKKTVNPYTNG
# B1: UAACAGA (DNA:RNA)
# RNA: GGGAGACCGGAAUUCAGAUUGUCCUAACAGAUUAAAUCCCGUCGUAGCCACCA
# DNA 1: CAATCTGAATTCCGGTCTCCC
# DNA 2: TGGTGGCTACGACGGGATT
# B2: GAAACAA (DNA:RNA)
# RNA: B1 RNA with U25G, C28A, A29C, G30A
# DNA 1: CAATCTGAATTCCGGTCTCCC
# DNA 2: TGGTGGCTACGACGGGATT
# B3: CAACAUC (DNA:RNA)
# RNA: B1 RNA with U25C, G30U, A31C
# DNA 1: CAATCTGAATTCCGGTCTCCC
# DNA 2: TGGTGGCTACGACGGGATT
# B4: UAUGCCA (DNA:RNA)
# RNA: B1 RNA with A27U, C28G, A29C, G30C
# DNA 1: CAATCTGAATTCCGGTCTCCC
# DNA 2: TGGTGGCTACGACGGGATT
# B5: AGAUUAC (DNA:RNA)
# RNA: B1 RNA with U25A, A26G, C28U, A29U, G30A, A31C
# DNA 1: CAATCTGAATTCCGGTCTCCC
# DNA 2: TGGTGGCTACGACGGGATT
# B6: CAAGUAA (DNA:RNA)
# RNA: B1 RNA with U25C, C28G, A29U, G30A
# DNA 1: CAATCTGAATTCCGGTCTCCC
# DNA 2: TGGTGGCTACGACGGGATT
# B7: UAUAAAA (DNA:RNA)
# RNA: B1 RNA with A27U, C28A, G30A
# DNA 1: CAATCTGAATTCCGGTCTCCC
# DNA 2: TGGTGGCTACGACGGGATT
# B8: GGUGAAU (DNA:RNA)
# RNA: B1 RNA with U25G, A26G, A27U, C28G, G30A, A31U
# DNA 1: CAATCTGAATTCCGGTCTCCC
# DNA 2: TGGTGGCTACGACGGGATT
# B9: UAUCUCC (DNA:RNA)
# RNA: B1 RNA with A27U, A29U, G30C, A31C
# DNA 1: CAATCTGAATTCCGGTCTCCC
# DNA 2: TGGTGGCTACGACGGGATT
# Biological target: T1, RBFOX1 RRM RbFoxmut (Fox-RRM*)
# Experiment: EMSA; HiTS-Eq, 1 nM pool, 10 min; buffer printed only for the single-RNA assays: 10 mM Tris pH 7.5, 150 mM NaCl, 3.4 mM EDTA, 0.001% NP-40, 30 C
# Conditions: tags: His6 N-terminal (pET28a); label: 5' 32P
# Outline: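 Relative association constants, normalised to the cognate motif, were derived by comparing read counts of each RNA species with those of the control reaction. The RNA sequenced was the free fraction, separated by 8% native PAGE after a 10 min equilibration in 50 µL of 1 nM 5′-radiolabelled RNA (7 randomized nucleotides) with increasing concentrations of purified wild-type or mutant RbFox RRM.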
row,Binder,binding signal
1,B1,0.0377 KA relative to UGCAUGU
2,B2,0.0537 KA relative to UGCAUGU
3,B3,0.0476 KA relative to UGCAUGU
4,B4,0.0821 KA relative to UGCAUGU
5,B5,0.105 KA relative to UGCAUGU
6,B6,0.112 KA relative to UGCAUGU
7,B7,0.0497 KA relative to UGCAUGU
8,B8,0.0936 KA relative to UGCAUGU
9,B9,0.0612 KA relative to UGCAUGU
